# The campaign covered roughly 110,000 compounds. About 230 (0.21%) showed an effect of 50% or more. The list shows a part of the results.
# Biological target: DPAP1 (Plasmodium falciparum, UniProt Q8IIJ9)
# Test: primary screen, percent inhibition; read by cleavage of a fluorogenic dipeptide substrate; higher = more effect of the substance
# Design: species or system P. falciparum D10 trophozoite lysates; single well
# 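Note: 30 min substrate incubation versus DMSO and 10 µM JCP410 controls.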
# DPAP1, sequence (Q8IIJ9 whole entry, looked up): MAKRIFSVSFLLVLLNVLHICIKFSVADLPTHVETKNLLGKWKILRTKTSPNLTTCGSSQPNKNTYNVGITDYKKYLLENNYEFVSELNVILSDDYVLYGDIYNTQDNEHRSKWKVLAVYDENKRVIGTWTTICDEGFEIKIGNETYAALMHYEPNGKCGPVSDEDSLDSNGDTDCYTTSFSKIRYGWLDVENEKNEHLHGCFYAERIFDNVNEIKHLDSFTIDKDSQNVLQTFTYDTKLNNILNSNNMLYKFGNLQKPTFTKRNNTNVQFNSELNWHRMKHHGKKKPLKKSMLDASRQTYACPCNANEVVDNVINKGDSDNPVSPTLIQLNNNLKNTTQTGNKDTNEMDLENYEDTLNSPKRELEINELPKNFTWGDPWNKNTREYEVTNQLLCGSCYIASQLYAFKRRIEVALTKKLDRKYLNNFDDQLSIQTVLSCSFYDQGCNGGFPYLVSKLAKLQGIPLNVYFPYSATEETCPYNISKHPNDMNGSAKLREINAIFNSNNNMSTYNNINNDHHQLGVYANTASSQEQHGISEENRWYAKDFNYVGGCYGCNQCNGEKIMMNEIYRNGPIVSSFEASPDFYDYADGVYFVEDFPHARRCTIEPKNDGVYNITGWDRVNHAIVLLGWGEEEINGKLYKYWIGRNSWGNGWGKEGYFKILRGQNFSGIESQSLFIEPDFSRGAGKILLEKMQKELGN
row,Compound,% Inhibition @ 10 uM [%]
1,COC(=O)c1cc2sc(Cl)cc2n1Cc1nc(-c2ccccc2)oc1C,-12.7
2,CCOc1cc(CN2CCCC(C(=O)N(CC)CC)C2)ccc1O (stereo not drawn),0.317
3,COc1ccc(OCCCC(=O)Nc2ccc(Cl)cc2C)cc1,3.8
4,CC(C)CCNC(=O)c1cnc(N2CCCC2)nc1,-6.91
5,O=C(NCc1cccnc1)c1cc2nc(-c3ccc(Cl)s3)cc(C(F)(F)F)n2n1,-0.994
6,Cc1ccc(S(=O)(=O)c2c(O)nc3cc(C(=O)O)ccc3c2O)cc1,2.97
7,CCOC(=O)c1c(C)[nH]c(C)c1S(=O)(=O)N(C)CC(=O)N(C)Cc1ccccc1,1.05
8,CCOc1ccc(S(=O)(=O)N(CC(=O)NC)c2ccc(C)cc2)cc1,-3.25
9,c1cc(C2=NCCO2)cc(C2=NCCO2)c1,-5.47
10,COc1ccc(C2=NC3(CCN(C(=O)c4ccccc4F)CC3)NC2=O)cc1,2.79
11,CCCCOc1ccc(-c2nc(/C=N/c3cccnc3)c(O)o2)cc1,10.7
12,NS(=O)(=O)c1ccc(NC(=O)/C=C/C(=O)O)cc1,-1.45
13,C/N=C1\S/C(=C\c2ccc(-c3cccc(C(=O)O)c3)o2)C(=O)N1C,0.611
14,Cc1ccc(-n2nc3c([n+]2[O-])CCc2nonc2-3)cc1,-4
15,CCNC(=O)C1CCN(c2nn3cc(-c4ccc(C)cc4)nc3s2)CC1,-1.41
16,OCc1ccccc1CN1CCCCC1,-4.67
17,Cc1cc(C)nc(SCC(=O)Nc2ccccc2C(C)C)n1,1.28
18,Cc1cc2nc(COc3ccc(C)c(C)c3)cc(=O)n2o1,-3.95
19,CO/C(O)=C1\C(C)=NC(=S)NC1c1cccc(Br)c1 (stereo not drawn),26.7
20,O=C(Cc1nnc(-c2ccc(Br)cc2)o1)NC1CCCCCC1,-6.6
21,COc1ccc(CCNS(=O)(=O)c2ccc3nc(O)ccc3c2)cc1OC,2.19
22,O=C(NCc1ccccn1)Nc1cccc(Cl)c1,-8.64

row,Compound,% Inhibition @ 10 uM [%]
1,CN(CCNC(=O)CCn1nc(-c2ccc(Cl)cc2)ccc1=O)Cc1ccccc1,1.62
2,CCCCNC(=O)c1ccc(CS(=O)(=O)c2ccccc2C)o1,-3.09
3,CCOC(=O)c1cnc(SCC(=O)N(C)C2CCCCC2)nc1N,-2.83
4,CCn1c(C(=O)NCCc2ccccc2)cc2oc3ccccc3c21,-3.96
5,COc1ccc(Br)cc1CN1C(=O)c2ccccc2C1C(=O)NC1CCC(C)CC1 (stereo not drawn),6.82
6,O=S(=O)(Nc1ccc(-c2cn3cccnc3n2)cc1)c1cccc2ccccc12,-3.45
7,N=c1n(CCO)c2ccccc2n1CCOc1ccc(Br)cc1,-11.4
8,COc1ccccc1C(=O)Nc1ccccc1C(=O)O,-6.71
9,Oc1c2nc3ccc(F)cc3c-2ncn1CCN1CCN(Cc2ccccc2)CC1,-1.74
10,COc1ccc(N(C(C)C(=O)Nc2ccc(C(C)C)cc2)S(C)(=O)=O)cc1 (stereo not drawn),-1.57
11,Cc1ccc(S(=O)(=O)N2CCCC(C(=O)Nc3ccnc4ccccc34)C2)cc1 (stereo not drawn),-4.67
12,CCOc1ccccc1CN1CCC(O)CC1,1.48
13,O=C(Cc1ccccc1)Nc1nc2nc3c(c(O)n2n1)CCC3,-6.81
14,Cc1c(Br)c(C(=O)N2CCc3ccccc32)nn1C,6.17
15,COc1ccc2[nH]cc(/C=C3\SC(=O)NC3=O)c2c1,0.161
16,COCC(C)NCc1ccccc1F (stereo not drawn),2.78
17,O=C(CCC(=O)N1Cc2ccccc2Oc2ncccc21)N1CCC2(CC1)OCCO2,5.34
18,Cc1ccc(-c2nnc(SCc3nc(-c4ccccc4)no3)n2C)cc1,2.99
19,O=C(NCc1ccco1)c1ccc(COCC(F)(F)C(F)F)cc1,1.34
20,COC(=O)c1ccc(C(=O)N(CCCN(C)C)c2nc3c(C)cccc3s2)cc1,6.31
21,Cc1nonc1NC(=O)c1oc2ccccc2c1C,3.51
22,N#CC1=C(N)SC(N)=C(C#N)C1c1cccc(Cl)c1,19.5

row,Compound,% Inhibition @ 10 uM [%]
1,O=C(c1ccc(Br)o1)N1CCN(c2ccccn2)CC1,-1.35
2,CC(C)(C)c1ccc(CC2CC2(Cl)Cl)c([N+](=O)[O-])c1 (stereo not drawn),4.12
3,Cn1c(C(=O)O)c(CC(=O)NCc2cccnc2)c2ccccc21,2.84
4,COc1cc(NC(=O)c2ccc(F)cc2)c(OC)cc1Cl,0.661
5,Cc1ccsc1/C=c1\sc2ncnn2c1=O,-3.33
6,CC(=O)Nc1c(C(=O)N2CCN(c3ncccn3)CC2)cnn1-c1ccccc1Cl,1.17
7,CC1(C)CC(NC(=O)c2ccccc2)CC(C)(CNC(=O)c2ccccc2)C1 (stereo not drawn),0.331
8,Cc1cccc(CNCc2c(C(=O)O)n(Cc3ccccc3C)c3cc(C)ccc23)c1,-5.04
9,CCCc1cc(=O)oc2cc3occ(C(C)(C)C)c3cc12,2.21
10,CC(C)OCCCNC(=O)CCCN1C(=O)CSc2ncccc21,1.03
11,COc1ccc(OC)c(CNC(=O)c2cc(-c3cccs3)nc3ccccc23)c1,3.55
12,CCCCN(C)C(=O)NCc1noc2ccccc12,1.41
13,O=C(Nc1ccc(Br)cc1)c1cccc2c1-c1ccccc1C2=O,-0.473
14,NC(=O)C1CCN(S(=O)(=O)c2cccc(C(F)(F)F)c2)CC1,2.62
15,COc1ccc(C(=O)N2c3ccccc3C=CC2C#N)cc1 (stereo not drawn),0.408
16,Cc1[nH]c2ccccc2c1CCC(=O)NC(C)C,-6.25
17,COc1cc(OC)c(CN2CC(C)CC(C)C2)cc1Br (stereo not drawn),-3.6
18,Cc1cccc(C)c1NC(=O)CN1C(=O)S/C(=C/c2cccs2)C1=O,-10.8
19,COc1ccc2nc3c(O)n(Cc4ccccc4Cl)cnc-3c2c1,-3.52
20,CCOc1cc2c(cc1/C=C1/NC(=O)N(CC(=O)Nc3ccccc3)C1=O)OCO2,7.34
21,CC(C)C[C@H](NC(=O)c1ccc(-c2cccc(C(C)C)c2)cc1)C(=O)NCC#N,-1.41
22,CCOC(=O)c1c(S(=O)(=O)NCCN2CCc3ccccc3C2)c(C)n(C)c1C,-1.37

# Source: publication PMC6919601, “Identification of Plasmodium dipeptidyl aminopeptidase allosteric inhibitors by high throughput screening” (PLoS ONE, 2019)
